The record followed here is ChEMBL document CHEMBL4888484, “Replenishing the malaria drug discovery pipeline: Screening and hit evaluation of the MMV Hit Generation Library 1 (HGL1) against asexual blood stage Plasmodium falciparum ,using a nano luciferase reporter read-out” (2022).

What is called % Inhibition is the drop in the measured response relative to a control, in per cent.

SMILES strings stand for the structures. Among all 150,000 compounds or so, about 540 (0.36%) showed an effect of 50% or more. The list shows a part of the results.

This assay deals with Plasmodium falciparum. Description: Primary screen in NF54 nanoGlo assay, in single point, at 2uM, 72h; a lower Z score goes with more inhibition. The format is functional, Erythrocyte. The conditions noted are these: timepoint 72 hour.
For the molecule `Cc1cc(CN2C(=O)N[C@](C)(c3ccccn3)C2=O)no1`, the “% Inhibition” value is -19% and the Z score is 1.71.

Regarding `CC(C)CCNC(=O)c1ccc2c(c1)nc1n2CCCC1`, the “% Inhibition” value amounted to 1% and the Z score was -0.23.

Regarding `CN1c2cc(C(=O)Nc3ccc4c(c3)OCCO4)ccc2C(=O)N2CCC[C@@H]21`, the “% Inhibition” value is 6% and the Z score is recorded as -0.71.

As for `CC(C)c1nc(CNS(=O)(=O)c2c3c(nn2C)CCCC3)c[nH]1`, the “% Inhibition” value is listed as -10% and the Z score worked out at 1.06.

Turning to `COCC(=O)NCC(c1ccco1)c1ccco1`, the “% Inhibition” value came out at 0% and the Z score is on record as -0.04.

Take `CNc1ccccc1CN1CCO[C@]2(CCOC2)C1`: the “% Inhibition” value was 26% and the Z score is -2.95.

Regarding `c1ccc(CN2CC(c3nc(C4CC4)no3)C2)nc1`, the “% Inhibition” value is -14% and the Z score is 2.64.

On to `O=C(Cc1cc2ccccc2o1)Nc1ccnn1[C@H]1CCOC1`, for which the “% Inhibition” value is -13% and the Z score was determined as 1.51.

As to `Cn1cnc(-c2noc(CCc3csc(N)n3)n2)c1`, the “% Inhibition” value is listed as 1% and the Z score is recorded as -0.09.

`O=c1c2ccccc2cc2n1CCCCC2`: the “% Inhibition” value is -16% and the Z score came out at 1.83.

For `O=C1NCCCC[C@@H]1NC(=O)N1CCN(c2nccs2)CC1`, the “% Inhibition” value was -8% and the Z score was 1.33.

As to `CC(C)(CN[C@H]1CCN(c2ccc(Cl)c(F)c2)C1)S(C)(=O)=O`, the “% Inhibition” value is reported as 0% and the Z score is reported as -0.05.

Take `CN(C)CC[C@@H](c1ccccc1)n1ccnc1-c1ccc(C(=O)O)cc1`: the “% Inhibition” value is -9% and the Z score was found to be 1.17.

In the case of `COc1cccc(C(=O)N(CC(=O)N2CCN(c3ccc(-c4ccc(Cl)cc4Cl)nn3)CC2)C2CC2)c1`, the “% Inhibition” value is -3% and the Z score worked out at 0.47.

Consider `C[C@@H](C(=O)NCc1cccnc1-n1cnc2ccccc21)N1CCCC1`, for which the “% Inhibition” value is on record as -4% and the Z score is given as 0.51.

`C[C@@]1(c2ccncc2)CCC(=O)NC1=O`: the “% Inhibition” value is reported as -22% and the Z score was determined as 2.94.

Turning to `CCOc1ccccc1NC(=O)Cc1c(C)nn(-c2nc(C)cs2)c1O`, the “% Inhibition” value is given as -5% and the Z score was 0.66.

With `CCc1nn(-c2ccc(OC)cc2)c(Oc2cccc(F)c2)c1CCC(=O)Nc1ccc(F)cc1`, the “% Inhibition” value was determined as 13% and the Z score is -2.26.

For the molecule `COc1ccccc1CC(=O)N1CCC[C@@H]1C(=O)O`, the “% Inhibition” value was -5% and the Z score was determined as 0.68.

Consider `CC(C)c1cc(CNC(=O)c2n[nH]c(N)c2Cl)no1`, for which the “% Inhibition” value was -14% and the Z score came out at 1.27.

In the case of `O=C(NCc1ccccn1)c1ccc(CN2C(=O)NC3(CCS(=O)(=O)CC3)C2=O)cc1`, the “% Inhibition” value is given as 1% and the Z score is -0.16.

`O=C(CCc1ccc(-c2ccccc2)o1)N1CCN(c2ccnc3cc(Cl)ccc23)CC1`: the “% Inhibition” value is on record as -14% and the Z score was found to be 2.04.

On to `CC(C)c1nc([C@H]2CCCN(c3ccc(C#N)cc3F)C2)no1`, for which the “% Inhibition” value came out at 4% and the Z score was -0.49.

On to `CCCCCOCC(=O)N1CCN(CC(F)(F)CO)CC1`, for which the “% Inhibition” value is on record as -9% and the Z score is reported as 1.22.

As for `CCC(CC)(CO)c1nc(-c2ccncc2)no1`, the “% Inhibition” value is -7% and the Z score is listed as 0.64.

As to `Cn1cnc2cc(-c3noc(CCc4c[nH]c5ccccc45)n3)ccc21`, the “% Inhibition” value was -14% and the Z score turned out to be 1.29.

As for `CC(=O)N1CCC(c2nnc(C(F)(F)F)o2)CC1`, the “% Inhibition” value is -11% and the Z score is on record as 1.24.

`COCCCCC(=O)Nc1cccc(C(F)(F)F)c1C`: the “% Inhibition” value is listed as -7% and the Z score is on record as 1.17.

For `C[C@H](O)c1ccccc1NC(=O)c1ccc(-c2ccco2)[nH]c1=O`, the “% Inhibition” value was -3% and the Z score stood at 0.53.

Turning to `CCCc1ccc(CN2C[C@@H]3CC[C@H]2CN(Cc2c(C)noc2C)C3)o1`, the “% Inhibition” value is -10% and the Z score came to 0.95.

`O=C1CCCN1c1ccc(S(=O)(=O)N2CCC(c3nc4ccccc4s3)CC2)cc1`: the “% Inhibition” value was -37% and the Z score was 4.36.

For the molecule `CCN1CCCN(CC(=O)N2C(C)CCCC2C)CC1` (stereo unspecified), the “% Inhibition” value amounted to 3% and the Z score is on record as -0.46.

In the case of `Cc1ccc2oc(N3C[C@@H](CN4CCCN(C)CC4)[C@@H](CO)C3)nc2c1`, the “% Inhibition” value is -5% and the Z score is 0.53.

Turning to `CCOC(=O)CCNC(=O)Nc1nc2c(s1)CN(S(=O)(=O)c1ccccc1)CC2`, the “% Inhibition” value is reported as -15% and the Z score was 1.38.

For the molecule `Cc1cc(C2(NC(=O)Nc3ccc(-c4nccc(C)n4)cc3)CCOCC2)on1`, the “% Inhibition” value is listed as -5% and the Z score is 0.95.

Regarding `COC(=O)c1c(CN2CCNC(=O)C2)nc2ccccc2c1-c1ccccc1`, the “% Inhibition” value is recorded as -17% and the Z score was determined as 3.26.

As to `Cc1cc(C(=O)N[C@H](c2cncc(Br)c2)C2CC2)no1`, the “% Inhibition” value stood at 3% and the Z score is on record as -0.48.

Consider `Cc1cccc(O[C@H](C(=O)N(C)Cc2nnc(C)o2)C(C)C)c1`, for which the “% Inhibition” value worked out at 1% and the Z score is -0.13.

For the molecule `Cc1n[nH]c(C2CN(C(C)C(=O)NCCc3ccccc3)CCO2)n1` (stereo unspecified), the “% Inhibition” value was -1% and the Z score was 0.15.

As to `Cc1cccc(-n2nnc(C(=O)NCc3ccccc3C(F)(F)F)c2-c2cccnc2)c1`, the “% Inhibition” value is listed as 3% and the Z score is reported as -0.4.

For the molecule `N#CC1(c2nc(Cc3cc(F)cc(F)c3)no2)CCCC1`, the “% Inhibition” value is given as -2% and the Z score came to 0.37.

As for `O=C1NC(=O)[C@@H]2CN(c3ccnc4ccsc34)C[C@H]12`, the “% Inhibition” value is reported as -9% and the Z score was 1.71.

`COc1ccccc1C(=O)CN1C(=O)C(=O)N(C2CCCCC2)C1=O`: the “% Inhibition” value is reported as -6% and the Z score turned out to be 0.81.
